Experimental data taken from PubChem BioAssay (NCATS).
Where “and” joins values, the source holds several entries; their conditions need not be identical. Identical values can stand only once. The shares of active, inactive and inconclusive entries below differ from those in the screen. For part of these data: Where the call is inconclusive, the potency comes from a doubtful curve fit. Calls of active or inactive are those of the source. Unless noted, the call rests on the fitted dose curve; in most records, active means well fitted curve in the direction sought with a large enough effect; inconclusive means small, poorly fitted or top-dose-only effect, or another doubt; inactive means no such curve, though single readings can be large; an effect the other way counts as inactive or inconclusive.

What was measured:
[1] = qHTS of pediatric cancer cell lines to identify multiple opportunities for drug repurposing: Primary screen for A673 cells (AID 1347092); details: A673 Ewing sarcoma viability, CellTiter-Glo ATP luminescence, 48 h; activity change, negative = cytotoxic: at 46 µM (top of the series); further: nearly all actives have a fitted effect of over 45% in size
Method in brief: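 Cells are plated, rested 5 h, dosed by pintool, incubated 48 h, then lysed with CellTiter-Glo and read by luminescence. DMSO is the neutral control; bortezomib at 2.3 uM final is the positive control.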

[2] = qHTS of pediatric cancer cell lines to identify multiple opportunities for drug repurposing: Primary screen for Rh41 cells (AID 1347108); further: nearly all actives have a fitted effect of over 70% in size; further: potency means the concentration at half of the fitted maximal effect;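 on activity change, negative = cytotoxic: luminescence drop marks cytotoxic hits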
Method in brief: (§1)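 Readout: CellTiter-Glo luminescence, 48 h treatment. Controls DMSO (neutral) and bortezomib 2.3 µM final (positive). Potency and efficacy taken from primary-screen concentration-response curves.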

UISO = assay: qHTS assay to identify novel small-molecules to repurpose for Merkel cell carcinoma treatment (AID 1296009); details: MCC and control cell lines, CellTiter-Glo viability, 72 h; series mostly up to 46 µM; further: nearly all actives have a fitted effect of over 60% in size; further: potency means the concentration at half of the fitted maximal effect
Method in brief: (§2)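 Cell viability measured by CellTiter-Glo following 72 hr compound treatment at 37 degree celsius, with NPC and MIPE libraries tested in 8- and 11-point concentration series.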

SKOV3 = assay: Primary qHTS to identify gynecologic anti-cancer compounds using libraries of approved drugs and bioactive compounds (AID 1345084); details: Gynecologic cancer cell panel viability, ATPlite luminescence, 48 h; series mostly up to 57.5 µM; further: nearly all actives have a fitted effect of over 55% in size; further: potency means the concentration at half of the fitted maximal effect
Method in brief: (§3)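 ATP-based viability (ATPlite), 1,000 cells/well, 16 h pre-incubation, 48 h compound at 37 C, 5% CO2, 15 min RT before read.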

[3] = qHTS of pediatric cancer cell lines to identify multiple opportunities for drug repurposing: Primary screen for SK-N-MC cells (AID 1347093); details: SK-N-MC viability, CellTiter-Glo luminescence, 48 h; activity change, negative = cytotoxic: at 46 µM (top of the series); further: potency means the concentration at half of the fitted maximal effect
Method in brief: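 Metabolically active cells were quantified by ATP-dependent luminescence (CellTiter-Glo, 15 min at room temperature) following 48 h treatment. Cells had been plated at 500-1,000 per well and settled for 5 h beforehand.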

[4] = qHTS of pediatric cancer cell lines to identify multiple opportunities for drug repurposing: Primary screen for SK-N-SH cells (AID 1347098); further: nearly all actives have a fitted effect of over 65% in size; further: potency means the concentration at half of the fitted maximal effect
Method in brief: (§4)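 Cells (500-1,000/well) rested 5 h, then received compounds for 48 h; metabolically active cells were measured by CellTiter-Glo luminescence. Final concentrations spanned up to 46 µM (MIPE, 11-point) or 0.59 nM-46 µM (NPC, 8-point) in primary screens, 11-point in follow-ups.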

[5] = qHTS of pediatric cancer cell lines to identify multiple opportunities for drug repurposing: Primary screen for OHS-50 cells (AID 1347103); details: OHS-50 osteosarcoma viability, CellTiter-Glo luminescence, 48 h; activity change, negative = cytotoxic: at 57.3 µM (top of the series); further: nearly all actives have a fitted effect of over 40% in size; further: potency means the concentration at half of the fitted maximal effect
Method in brief: as §4

[6] = Primary qHTS for small molecule stabilizers of the endoplasmic reticulum resident proteome: Secreted ER Calcium Modulated Protein (SERCaMP) assay (AID 1508630); details: SH-SY5Y GLuc-SERCaMP (Gaussia luciferase released on ER calcium loss) secretion, thapsigargin, luminescence; series mostly up to 38.4 µM; further: potency means the concentration at half of the fitted maximal effect
Method in brief: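 The SH-SY5Y reporter protocol was run at 3 concentrations up to 38.3 uM (primary) or 11 concentrations (follow-up): 16 h compound, 100 nM thapsigargin for 4 h, then extracellular luciferase luminescence.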

[7] = Primary qHTS for inhibitors of nuclear receptor binding SET domain protein 2 (NSD2) in an isogenic RCH-ACV NSD2 p.E1099K mutant (9B) (AID 1645876); details: activity change, negative = viability loss: at 44.9 µM (top of the series) unless noted; further: nearly all actives have a fitted effect of over 70% in size; further: potency means the concentration at half of the fitted maximal effect
[8] = Primary qHTS for inhibitors of nuclear receptor binding SET domain protein 2 (NSD2) in an RCH-ACV wild type WT cells (2C) (AID 1645877); details: activity change, negative = cell killing: at 44.9 µM (top of the series) unless noted; further: nearly all actives have a fitted effect of over 70% in size; further: potency means the concentration at half of the fitted maximal effect
[9] = Drug repurposing screens with cells derived from glioblastoma tumor samples (AID 1345199); details: GBM patient neurospheres viability, ATP luminescence, 48 h; Potency: tumour line A unless noted; series mostly up to 46 µM; further: nearly all actives have a fitted effect of over 40% in size; further: potency means the concentration at half of the fitted maximal effect
Method in brief: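 Primary testing used CD133+ neurospheres from four GBM patients, seven concentrations, 48 h exposure and ATP-based viability; confirmation added three slower-growing patient lines.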

[10] = qHTS of pediatric cancer cell lines to identify multiple opportunities for drug repurposing: Primary screen for BT-37 cells (AID 1347094)
Method in brief: as §1

[11] = A High-Content qHTS Against Drug Library for the Identification of Small Molecules that Inhibit DYT1 Early Onset Primary Dystonia-Associated Cell Pathology (AID 1645839; calls by dose curve)
Method in brief: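 High-content imaging quantified EGFP-TorsinA mislocalization in HEK293-derived cells inducibly expressing DYT1 mutant torsinA, after 48 h exposure to compound given together with tetracycline induction. Cell count served as a toxicity channel alongside %pathology.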

[12] = target: Cytochrome P450 2D6 (Homo sapiens) (UniProt P10635); assay: Cytochrome P450 family 2 subfamily D member 6 (CYP2D6) small molecule antagonists: luciferase biochemical (cell-free) qHTS assay (AID 1645840; active means well fitted curve in the direction sought with a large enough effect in the repeat runs; inconclusive means weak or mixed curves; inactive means no such curve, though single readings can be large; an effect the other way counts as inactive or inconclusive; further: nearly all actives have a fitted effect of over 55% in size; further: potency means the concentration at half of the fitted maximal effect)
Method in brief: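 P450-Glo CYP2D6 system: proluciferin substrate converted by enzyme to luciferin, read by luminescence proportional to activity. Enzyme-substrate mix with compound 10 min at room temperature, then NADPH regeneration 1 h before detection reagent.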

W2 = assay: qHTS profiling for inhibitors of Plasmodium falciparum proliferation (AID 504749); further: nearly all actives have a fitted effect of over 60% in size; further: potency means the concentration at half of the fitted maximal effect; details: P. falciparum in erythrocytes, SYBR Green DNA, 72 h; activity, negative = inhibition: at 28.7 µM (top of the series)
Method in brief: (§5)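 In a 72 h erythrocytic culture (37 C, humidified, 5% CO2) at 2.5% hematocrit and 0.3% starting parasitemia, compounds were tested; SYBR Green I in detergent lysis buffer stained parasite DNA overnight.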

[13] = qHTS of pediatric cancer cell lines to identify multiple opportunities for drug repurposing: Primary screen for Saos-2 cells (AID 1347097); details: Saos-2 viability, CellTiter-Glo ATP luminescence, 48 h; activity change, negative = cytotoxic: at 46 µM (top of the series); further: nearly all actives have a fitted effect of over 40% in size; further: potency means the concentration at half of the fitted maximal effect
Method in brief: as §1

CAOV3 = assay: Primary qHTS to identify gynecologic anti-cancer compounds using libraries of approved drugs and bioactive compounds (AID 1345084); details: Gynecologic cancer cell panel viability, ATPlite luminescence, 48 h; series mostly up to 57.5 µM; further: nearly all actives have a fitted effect of over 55% in size; further: potency means the concentration at half of the fitted maximal effect
Method in brief: as §3

WaGa = assay: qHTS assay to identify novel small-molecules to repurpose for Merkel cell carcinoma treatment (AID 1296009); details: MCC and control cell lines, CellTiter-Glo viability, 72 h; series mostly up to 46 µM; further: nearly all actives have a fitted effect of over 60% in size; further: potency means the concentration at half of the fitted maximal effect
Method in brief: as §2

DIV17 = assay: qHTS profiling for inhibitors of Plasmodium falciparum proliferation (AID 504749); further: nearly all actives have a fitted effect of over 60% in size; further: potency means the concentration at half of the fitted maximal effect; details: P. falciparum in erythrocytes, SYBR Green DNA, 72 h; activity, negative = inhibition: at 28.7 µM (top of the series)
Method in brief: as §5

Measured: Potency
Tags describe the fitted curve by direction and shape.

Chain of UniProt P10635 (P10635 whole entry, looked up): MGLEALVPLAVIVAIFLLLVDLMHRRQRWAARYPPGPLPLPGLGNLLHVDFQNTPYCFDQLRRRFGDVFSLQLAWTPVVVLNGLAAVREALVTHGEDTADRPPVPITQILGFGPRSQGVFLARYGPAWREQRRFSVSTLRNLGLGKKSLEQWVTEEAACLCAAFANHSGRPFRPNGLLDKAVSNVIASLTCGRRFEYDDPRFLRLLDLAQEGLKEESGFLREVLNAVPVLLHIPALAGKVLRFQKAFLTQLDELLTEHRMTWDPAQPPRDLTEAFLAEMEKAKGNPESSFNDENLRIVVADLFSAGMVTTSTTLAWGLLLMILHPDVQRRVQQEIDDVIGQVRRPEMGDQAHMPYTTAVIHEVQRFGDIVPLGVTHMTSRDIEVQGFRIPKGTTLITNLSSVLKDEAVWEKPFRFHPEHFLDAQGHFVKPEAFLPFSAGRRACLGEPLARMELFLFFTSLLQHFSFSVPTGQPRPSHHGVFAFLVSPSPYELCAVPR

C[C@H](CS)C(=O)N1CCC[C@H]1C(=O)O
inactive: [1] | [2] | UISO
inconclusive: SKOV3 = 0.224 µM [rising, full curve, poor fit]

OC(CCCN1CCCCC1)(c1ccccc1)c1ccccc1
inactive: [4] | [6] | UISO | SKOV3
active: [9] 11.2 µM
inconclusive: [3] 0.006 µM [cytotoxic, full curve, poor fit] | [5] 15.5 µM [cytotoxic, partial curve, poor fit] | [7] 33.5 µM [inhibitor, single point] | [8] 29.9 µM [inhibitor, single point]

Cc1cccn2c(=O)c(-c3nnn[nH]3)cnc12
inactive: [3] | [10] | [4] | [11] | [8] | UISO | [9] | W2
inconclusive: [6] 14.1 µM [inhibitor, single point] | [12] 15.1 µM [inhibitor, single point]

CC1(C)[C@@H]2CC[C@@]1(C)C(=O)C2
inconclusive: [9] 10 µM [inhibitor, partial curve]
inactive: [2] | [11] | UISO

Cc1c(F)cc2c(=O)c(C(=O)O)cn3c2c1CCC3C (stereo not given)
inactive: [13] | UISO | CAOV3

O=C(CN1CCNCC1)NC1CCCCC1
inactive: [3] | [10] | UISO | CAOV3 | W2
inconclusive: [9] 39.8 µM [inhibitor, partial curve, poor fit]

CC(C)c1cc2c(cc1S(=O)(=O)O)[C@@]1(C)CCC[C@@](C)(C(=O)O)[C@@H]1CC2
inconclusive: [4] 1.94 µM [cytotoxic, partial curve, poor fit] | [6] 31.6 µM [inhibitor, single point] | W2 = 4.26 µM [inhibitor, single point]
inactive: [12] | [8] | UISO | [9]

CC(=O)N[C@@H](CCC(N)=O)C(=O)O
inconclusive: [6] 2.24 µM [inhibitor, full curve, poor fit] | [9] 39.8 µM [inhibitor, partial curve, poor fit]
inactive: [10] | [2] | UISO | WaGa | SKOV3

CC(C)(C)C(=O)NCCCC(=O)O
inactive: [1] | [4] | [5] | [12] | [7] | UISO
inconclusive: [6] 3.16 µM [inhibitor, full curve, poor fit] | [9] 17.8 µM [inhibitor, partial curve]

CCCCC(CC)CNC(=O)CC(C)OC(=O)CCC(=O)O (stereo not given)
inconclusive: [12] 38.9 µM [inhibitor, single point]
inactive: [1] | [3] | [5] | [6] | UISO

O=C(c1ccco1)N1CCNCC1
inactive: [3] | [4] | [5] | [11] | UISO
inconclusive: [13] 26.6 µM [cytotoxic, single point]

Cc1cccc(C(=O)O)c1O
inactive: [13] | [12] | [7] | UISO
inconclusive: DIV17 = 0.0013 µM [activator]

O=C1CC2(CCCC2)CC(=O)N1CCCCN1CCN(c2ncccn2)CC1
inactive: [3] | [8] | UISO | WaGa
active: [9] 5.01 µM
inconclusive: [6] 28.2 µM [inhibitor, single point] and 25.1 µM [inhibitor, single point] | CAOV3 = 10 µM [rising, partial curve, poor fit] | DIV17 = 16.9 µM [inhibitor, partial curve] | W2 = 12 µM [inhibitor, single point]

O=c1[nH]c(=O)n([C@H]2C[C@H](O)[C@@H](CO)O2)cc1I
inactive: [5]
inconclusive: [2] 7.5 µM [cytotoxic, partial curve, poor fit] | UISO 10.6 µM [inhibitor, partial curve, poor fit] | CAOV3 = 28.2 µM [rising, partial curve, poor fit] | [9] 14.1 µM [inhibitor, single point] [tumour line D]
active: [8] 2.99 µM and 662 nM
